Assay results as given in patent publication US20260034244A1 (PANOLOS BIOSCIENCE, published 2026).

T1: VEGF-A (UniProt P15692-4 27-191, limits assumed)
T1 construct: Analyte at 40, 20, 10 nM; also called vascular endothelial growth factor A
T1 sequence (looked up): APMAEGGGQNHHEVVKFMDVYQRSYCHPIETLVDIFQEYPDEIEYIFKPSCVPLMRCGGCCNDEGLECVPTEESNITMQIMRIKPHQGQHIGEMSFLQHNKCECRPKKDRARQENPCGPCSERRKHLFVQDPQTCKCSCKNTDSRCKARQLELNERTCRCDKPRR

T2: PLGF (UniProt P49763-2 19-149, limits assumed)
T2 construct: also called placental growth factor
T2 sequence (looked up): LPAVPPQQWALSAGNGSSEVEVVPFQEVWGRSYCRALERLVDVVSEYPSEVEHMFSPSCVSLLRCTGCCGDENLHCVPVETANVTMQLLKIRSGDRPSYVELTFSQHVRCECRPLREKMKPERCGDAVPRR

T3: VEGF-A (UniProt P15692-4 27-191, limits assumed)
T3 construct: also called vascular endothelial growth factor A
T3 sequence (looked up): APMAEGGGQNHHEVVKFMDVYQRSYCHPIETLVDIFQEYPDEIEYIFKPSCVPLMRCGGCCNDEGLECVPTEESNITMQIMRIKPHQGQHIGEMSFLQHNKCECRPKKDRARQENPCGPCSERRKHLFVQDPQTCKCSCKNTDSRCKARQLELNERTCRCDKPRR

T4: PLGF (UniProt P49763-2 19-149, limits assumed)
T4 construct: also called placental growth factor
T4 sequence (looked up): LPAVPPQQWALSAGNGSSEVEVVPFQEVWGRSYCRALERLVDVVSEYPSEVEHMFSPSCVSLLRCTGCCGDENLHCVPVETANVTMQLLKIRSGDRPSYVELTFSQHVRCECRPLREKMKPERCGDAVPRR

B1: C39 (Fc fusion)
chain: EFGRPFVEMYSEIPEIIHMTEGRELVIPCRVTSPNITVTLKKFPLDTLIPDGKRIIWDSRKGFIISNATYKEIGLLTCEATVNGHLYKTNYLTHRQTNTIIDVQISTPSPVTLLRGHTLVLNCTATTPLNTRVQMTWSYPDEKNKNASVRRRIDQSNSHANIFYSVLTIDKMQNKDKGLYTCRVRSGPSFKSVNTSVHIYDGSKVDKKVEPKSSDTPP[gap - human IgG1 Fc]
notes: Linker variant based on VEGF-Grab3
B2: C27 (Fc fusion)
chain: EFGRPFVEMYSEIPEIIHMTEGRELVIPCRVTSPNITVTLKKFPLDTLIPDGKRIIWDSRKGFIISNATYKEIGLLTCEATVNGHLYKTNYLTHRQTNTIIDVQISTPSPVELSVGETLVLNCTATTPANTRVQMTWSYPDEKNKNASVRRRIDQSNSHANIFYSVLTIDGMTNSDKGLYTCRVRSGPSFKSVNTSVHIYDE[gap - human IgG1 Fc]
notes: Based on VEGF-Grab3; K241E/L243S/R244V/H246E/L258A/K300G/Q302T/K304S; IgG1 Fc
B3: C25 (Fc fusion)
chain: EFGRPFVEMYSEIPEIIHMTEGRELVIPCRVTSPNITVTLKKFPLDTLIPDGKRIIWDSRKGFIISNATYKEIGLLTCEATVNGHLYKTNYLTHRQTNTIIDVQISTPSPVELSVGETLVLNCTATTPANTRVQMTWSYPDEKNKNASVRRRIDQSNSHANIFYSVLTIDGMTNSDQGLYTCRVRSGPSFKSVNTSVHIYDE[gap - human IgG1 Fc]
notes: Based on VEGF-Grab3; K241E/L243S/R244V/H246E/L258A/K300G/Q302T/K304S/K306Q; IgG1 Fc
B4: C26 (Fc fusion)
chain: EFGRPFVEMYSEIPEIIHMTEGRELVIPCRVTSPNITVTLKKFPLDTLIPDGKRIIWDSRKGFIISNATYKEIGLLTCEATVNGHLYKTNYLTHRQTNTIIDVQISTPSPVELSVGETLVLNCTATTPANTRVQMTWSYPDEKNKNASVRRRIDQSNSHANIFYSVLTIDGMQNKDKGLYTCRVRSGPSFKSVNTSVHIYDE[gap - human IgG1 Fc]
notes: Based on VEGF-Grab3; K241E/L243S/R244V/H246E/L258A/K300G; IgG1 Fc
B5: C28 (Fc fusion)
chain: EFGRPFVEMYSEIPEIIHMTEGRELVIPCRVTSPNITVTLKKFPLDTLIPDGKRIIWDSRKGFIISNATYKEIGLLTCEATVNGHLYKTNYLTHRQTNTIIDVQISTPSPVTLLRGHTLVLNCTATTPANTRVQMTWSYPDEKNKNASVRRRIDQSNSHANIFYSVLTIDGMTNSDKGLYTCRVRSGPSFKSVNTSVHIYDE[gap - human IgG1 Fc]
notes: Based on VEGF-Grab3; L258A/K300G/Q302T/K304S; IgG1 Fc
B6: C29 (Fc fusion)
chain: EFGRPFVEMYSEIPEIIHMTEGRELVIPCRVTSPNITVTLKKFPLDTLIPDGKRIIWDSRKGFIISNATYKEIGLLTCEATVNGHLYKTNYLTHRQTNTIIDVQISTPSPVTLLRGHTLVLNCTATTPANTRVQMTWSYPDEKNKNASVRRRIDQSNSHANIFYSVLTIDGMTNSDQGLYTCRVRSGPSFKSVNTSVHIYDE[gap - human IgG1 Fc]
notes: Based on VEGF-Grab3; L258A/K300G/Q302T/K304S/K306Q; IgG1 Fc
B7: C30 (Fc fusion)
chain: EFGRPFVEMYSEIPEIIHMTEGRELVIPCRVTSPNITVTLKKFPLDTLIPDGKRIIWDSRKGFIISNATYKEIGLLTCEATVNGHLYKTNYLTHRQTNTIIDVQISTPSPVELSVGETLVLNCTATTPLNTRVQMTWSYPDEKNKNASVRRRIDQSNSHANIFYSVLTIDGMTNSDKGLYTCRVRSGPSFKSVNTSVHIYDE[gap - human IgG1 Fc]
notes: Based on VEGF-Grab3; K241E/L243S/R244V/H246E/K300G/Q302T/K304S; IgG1 Fc
B8: C32 (Fc fusion)
chain: EFGRPFVEMYSEIPEIIHMTEGRELVIPCRVTSPNITVTLKKFPLDTLIPDGKRIIWDSRKGFIISNATYKEIGLLTCEATVNGHLYKTNYLTHRQTNTIIDVQISTPSPVTLLRGHTLVLNCTATTPLNTRVQMTWSYPDEKNKNASVRRRIDQSNSHANIFYSVLTIDKMQNKDKGLYTCRVRSGPSFKSVNTSVHIYDGSSG[gap - human IgG1 Fc with changes]
notes: Linker variant based on VEGF-Grab3; The Fc region is described as a dimerization domain
B9: C34 (Fc fusion)
chain: EFGRPFVEMYSEIPEIIHMTEGRELVIPCRVTSPNITVTLKKFPLDTLIPDGKRIIWDSRKGFIISNATYKEIGLLTCEATVNGHLYKTNYLTHRQTNTIIDVQISTPSPVTLLRGHTLVLNCTATTPLNTRVQMTWSYPDEKNKNASVRRRIDQSNSHANIFYSVLTIDKMQNKDKGLYTCRVRSGPSFKSVNTSVHIYDGSSGEPKSSDKTYTS[gap - human IgG1 Fc with changes]
notes: as for B1
B10: C41 (Fc fusion)
chain: EFGRPFVEMYSEIPEIIHMTEGRELVIPCRVTSPNITVTLKKFPLDTLIPDGKRIIWDSRKGFIISNATYKEIGLLTCEATVNGHLYKTNYLTHRQTNTIIDVQISTPSPVTLLRGHTLVLNCTATTPLNTRVQMTWSYPDEKNKNASVRRRIDQSNSHANIFYSVLTIDKMQNKDKGLYTCRVRSGPSFKSVNTSVHIYDGSGGGGSGGGGSGGGGSAESKYGPP[gap - human IgG1 Fc]
notes: as for B1
B11: C44 (Fc fusion)
chain: EFGRPFVEMYSEIPEIIHMTEGRELVIPCRVTSPNITVTLKKFPLDTLIPDGKRIIWDSRKGFIISNATYKEIGLLTCEATVNGHLYKTNYLTHRQTNTIIDVQISTPSPVTLLRGHTLVLNCTATTPLNTRVQMTWSYPDEKNKNASVRRRIDQSNSHANIFYSVLTIDKMQNKDKGLYTCRVRSGPSFKSVNTSVHIYDGSNTGSGGEEKKKEKEKEEQEERSSDTPP[gap - human IgG1 Fc]
notes: as for B1
B12: C43 (Fc fusion)
chain: EFGRPFVEMYSEIPEIIHMTEGRELVIPCRVTSPNITVTLKKFPLDTLIPDGKRIIWDSRKGFIISNATYKEIGLLTCEATVNGHLYKTNYLTHRQTNTIIDVQISTPSPVTLLRGHTLVLNCTATTPLNTRVQMTWSYPDEKNKNASVRRRIDQSNSHANIFYSVLTIDKMQNKDKGLYTCRVRSGPSFKSVNTSVHIYDGSNTGSGGEEKKKEKEKEEQEERSS[gap - human IgG1 Fc with H224Y (EU numbers)]
notes: as for B1
B13: C45 (Fc fusion)
chain: EFGRPFVEMYSEIPEIIHMTEGRELVIPCRVTSPNITVTLKKFPLDTLIPDGKRIIWDSRKGFIISNATYKEIGLLTCEATVNGHLYKTNYLTHRQTNTIIDVQISTPSPVTLLRGHTLVLNCTATTPLNTRVQMTWSYPDEKNKNASVRRRIDQSNSHANIFYSVLTIDKMQNKDKGLYTCRVRSGPSFKSVNTSVHIYDEGSSGGSSGEPKS[gap - human IgG1 Fc and a few adjoining residues]
notes: as for B1

What was measured:
VEGF-A [1] = biological target: T1, VEGF-A; experiment: BLI (Octet), fusion captured on AHC sensor; fold increase vs VEGF-Grab3 (Samsung Biologics)
PLGF [2] = biological target: T2, PLGF; experiment: as above
VEGF-A [3] = biological target: T3, VEGF-A; experiment: BLI Octet; fold increase vs VEGF-Grab3 (Samsung Biologics)
PLGF [4] = biological target: T4, PLGF; experiment: as above

Row | Binder | Fold (KD) (VEGF-A [1]) | Fold (kdis) (VEGF-A [1]) | Fold (kon) (VEGF-A [1]) | Fold (KD) (PLGF [2]) | Fold (kdis) (PLGF [2]) | Fold (kon) (PLGF [2]) | Fold (KD) (VEGF-A [3]) | Fold (kdis) (VEGF-A [3]) | Fold (kon) (VEGF-A [3]) | Fold (KD) (PLGF [4]) | Fold (kdis) (PLGF [4]) | Fold (kon) (PLGF [4])
1 | B1 | 0.21 fold | 0.14 fold | 1.49 fold | 6.64 fold | 2.65 fold | 2.5 fold | – | – | – | – | – | –
2 | B2 | – | – | – | – | – | – | 0.05 fold | 0.03 fold | 1.43 fold | 0.7 fold | 0.33 fold | 2.13 fold
3 | B3 | – | – | – | – | – | – | – | 0.14 fold | 1.34 fold | 0.56 fold | 0.44 fold | 1.28 fold
4 | B4 | – | – | – | – | – | – | 0.03 fold | 0.02 fold | 1.36 fold | 0.53 fold | 0.39 fold | 1.34 fold
5 | B5 | – | – | – | – | – | – | 0.88 fold | 1 fold | 0.88 fold | 0.52 fold | 0.51 fold | 1.02 fold
6 | B6 | – | – | – | – | – | – | 0.85 fold | 1 fold | 0.85 fold | 0.57 fold | 0.52 fold | 1.09 fold
7 | B7 | – | – | – | – | – | – | < 0.01 fold | < 0.01 fold | 1.67 fold | 0.51 fold | 0.23 fold | 2.22 fold
8 | B8 | 0.57 fold | 0.37 fold | 1.53 fold | 4.4 fold | 3.85 fold | 1.14 fold | – | – | – | – | – | –
9 | B9 | 0.33 fold | 0.2 fold | 1.6 fold | 3.26 fold | 4.6 fold | 0.71 fold | – | – | – | – | – | –
10 | B10 | 0.11 fold | 0.07 fold | 1.56 fold | 5.19 fold | 2.12 fold | 2.45 fold | – | – | – | – | – | –
11 | B11 | 0.09 fold | 0.05 fold | 1.71 fold | 2.48 fold | 1.42 fold | 1.74 fold | – | – | – | – | – | –
12 | B12 | 0.12 fold | 0.07 fold | 1.63 fold | 2.67 fold | 2.99 fold | 0.89 fold | – | – | – | – | – | –
13 | B13 | 0.15 fold | 0.12 fold | 1.23 fold | 2.59 fold | 1.5 fold | 1.72 fold | – | – | – | – | – | –
